{"source": "PubChem BioAssay AID1347073", "about": "(National Center for Advancing Translational Sciences (NCATS), 2019)", "note": "The campaign covered roughly 45,000 compounds. About 200 (0.44%) were called active. Roughly 7% stayed inconclusive and do not appear here. Calls come from the whole dose curve; as a rule, active = well fitted activation curve with a large enough effect; inconclusive = small, poorly fitted or top-dose-only effect; inactive = no such curve, though single readings can be large or run the other way. The list shows a part of the results."}
{"test": "qHTS of TDP-43 Inhibitors: NCGC Sytravon Library Screen; note: 0% is about no effect; nearly all actives have a fitted effect of over 55% in size", "conditions": "yeast TDP-43 toxicity rescue, BacTiter-Glo growth, 24 h; series mostly up to 46.1 µM; growth rescue (activation): at the top concentration", "procedure,_shortened": "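TDP-43-expressing yeast, pregrown in raffinose, seeded at OD600 0.02 in galactose medium with compound for 24 hr at 30 deg C. Growth read by BacTiter-Glo luminescence, so rescue of toxicity appears as activation.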"}
{"smiles": "COc1cccc2c1Oc1cc([N+](=O)[O-])cc(N(C)C(C)=O)c1C=C2", "growth rescue (activation)": "inactive: 6.02%"}
{"smiles": "COc1ccc(C)cc1NC(=O)N1CCCc2ccccc21", "growth rescue (activation)": "inactive: -1.73%"}
{"smiles": "O=C(Cn1cncn1)N/N=C/c1ccccc1O", "growth rescue (activation)": "inactive: 28.2%"}
{"smiles": "NS(=O)(=O)c1cccc(NC(=O)CSc2nnc(C3CC3)n2Cc2ccccc2)c1", "growth rescue (activation)": "inactive: -4.8%"}
{"smiles": "CCOc1ccc2cc(S(=O)(=O)N3CCCCC3)ccc2c1", "growth rescue (activation)": "inactive: 2.53%"}
{"smiles": "O=C(Cc1ccc(Br)cc1)N1CCN(C(=O)c2ccco2)CC1", "growth rescue (activation)": "inactive: 7.24%"}
{"smiles": "COC(=O)N1CCCCC1c1cc(C(=O)NCc2cccnc2)no1", "note": "(stereo not drawn)", "growth rescue (activation)": "inactive: -3.03%"}
{"smiles": "COc1ccc(S(=O)(=O)N2CCOCC2)cc1NC(=O)Cc1coc2cc(C)ccc12", "growth rescue (activation)": "inactive: 13.8%"}
{"smiles": "O=C(NCCC1=CCCCC1)c1ccc2c(c1)N(Cc1ccccc1)C(=O)c1ccccc1S2(=O)=O", "growth rescue (activation)": "inactive: 10.2%"}
{"smiles": "CC(=O)CCc1ccc(OCC(=O)Nc2cccc(S(=O)(=O)N(C)c3ccccc3)c2)cc1", "growth rescue (activation)": "inactive: -1.78%"}
{"smiles": "Cc1cc(C)cc(NC(=O)CCCN2C(=O)COc3ccc(C)cc32)c1", "growth rescue (activation)": "inactive: 20.3%"}
{"smiles": "COc1cccc(C2C(C(=O)c3ccco3)=C(O)C(=O)N2CCCN2CCOCC2)c1OC", "note": "(stereo not drawn)", "growth rescue (activation)": "inactive: -25.2%"}
{"smiles": "CCOC(=O)N1CCN(C(=O)c2ccc(C)c(S(=O)(=O)N3CCCCC3)c2)CC1", "growth rescue (activation)": "inactive: 11.9%"}
{"smiles": "Cc1ccc(N(CC(=O)NCC2CCCO2)C(=O)CCC(=O)Nc2nccs2)cc1", "note": "(stereo not drawn)", "growth rescue (activation)": "inactive: 24.2%"}
{"smiles": "Cc1ccc(OCCSc2nc3ccccc3n2CC(=O)O)c(C(C)C)c1", "growth rescue (activation)": "inactive: 2.9%"}
{"smiles": "CC1/C(=N/O)CC(c2ccco2)NC1c1ccco1", "note": "(stereo not drawn)", "growth rescue (activation)": "inactive: 15%"}
{"smiles": "Cc1cc(=O)[nH]c(/N=C(\\N)Nc2ccc3c(c2)OCCO3)n1", "growth rescue (activation)": "inactive: 12.4%"}
{"smiles": "O=C(Nc1ccc(F)c(Cl)c1)C1CC(=O)n2c(nc3ccccc32)N1", "note": "(stereo not drawn)", "growth rescue (activation)": "inactive: -3.37%"}
{"smiles": "O=[N+]([O-])c1ccc(N2CCN(S(=O)(=O)c3ccccc3)CC2)cc1NCC1CCCO1", "note": "(stereo not drawn)", "growth rescue (activation)": "inactive: -10.1%"}
{"smiles": "COc1cc(NC(=O)c2ccccc2)c(OC)cc1NC(=O)Cc1cccs1", "growth rescue (activation)": "inactive: -7.11%"}
{"smiles": "O=C(OCc1cc([N+](=O)[O-])cc2c1OCOC2)c1cccnc1SC(F)F", "growth rescue (activation)": "inactive: 19.8%"}
{"smiles": "CCc1ccc(C(O)c2ncc(-c3ccccc3C)[nH]2)cc1", "note": "(stereo not drawn)", "growth rescue (activation)": "inactive: 3.19%"}
{"smiles": "C/C(N)=C(/C#N)C(=O)COC(=O)c1cc(-c2ccc(Br)cc2)nc2ccccc12", "Potency": "inactive"}
{"smiles": "CCCCOP(=O)(c1ccc(N(C)C)cc1)C(O)c1ccc(OC)c(OC)c1", "note": "(stereo not drawn)", "growth rescue (activation)": "inactive: 17.2%"}
{"smiles": "CCCn1c(N)c(C(=O)CSc2nc(C3CC3)n(-c3ccccc3)n2)c(=O)[nH]c1=O", "growth rescue (activation)": "inactive: 10.3%"}
{"smiles": "COc1ccc2[nH]c(=O)c(CNc3cc(C)ccc3C)cc2c1", "growth rescue (activation)": "inactive: -8.44%"}
{"smiles": "Cc1cccc(C(=O)OCC(=O)N2CCCCCC2)c1C", "growth rescue (activation)": "inactive: -11%"}
{"smiles": "Cc1cc(Cl)ccc1C(O)c1ncc(-c2ccccc2C(F)(F)F)[nH]1", "note": "(stereo not drawn)", "growth rescue (activation)": "inactive: 12.1%"}
